The RNAGym collection of RNA variant scans (doi:10.7554/elife.90254)
Read counts are not given, so values of variants with three or more changes are uncertain.

B1: LINE1-mini (parent)
chain: GGCAGAGCUCAACACAGCGUGGCAAAGUGGCUGUGGCUAGACUGCC

Variants of: B1
Assay: self-cleavage, relative activity (ratio to wild type); higher = more cleavage; in vitro, sequencing; the parent is a self-cleaving ribozyme

| Variant | self-cleavage |
| --- | --- |
| GGCAGAGCUCAACACAGCGUUGCAAAGUGGCUGUGGCAAGACUGGG [G21U U38A C45G C46G] | 0.16 |
| GGCAGAGCUCAACACAGCGUUGCAAAGUGGCCGUGGCUAGUCUGAC [G21U U32C A41U C45A] | 0.03 |
| GGCAGAGCUCAACACAGCGUUGCAAAGUGGCUGCGGCUAGUCUGCC [G21U U34C A41U] | 0.35 |
| GGCAGAGCUCAACACAGCGUUGCAAAGUGGCUGUGGCUAAACUGCG [G21U G40A C46G] | 0.12 |
| GGCAGAGCUCAACACAGCGUUGCAAAGUGUCUGUGACUGGACUGCC [G21U G30U G36A A39G] | 0.04 |
| GGCAGAGCUCAACACAGCGUUGCAAAGUGGCUGUGGCGAGACUGCA [G21U U38G C46A] | 0.03 |
| GGCAGAGCUCAACACAGCGUUGCAAAGUGUCUGUGGCUAUACUGCC [G21U G30U G40U] | 0.11 |
| GGCAGAGCUCAACACAGCGUUGCAAAGUGGCGGCGGCUAGACUGCC [G21U U32G U34C] | 0.29 |
| GGCAGAGCUCAACACAGCGUUGCAAAGUGGCGGGGGCUAGACUGCC [G21U U32G U34G] | 0.02 |
| GGCAGAGCUCAACACAGCGUUGCAAAGUGGCUGUUGCUAGGUUGCC [G21U G35U A41G C42U] | 0.05 |
| GGCAGAGCUCAACACAGCGUUGCAAAGUGGCUGUGUAUAGACUGCC [G21U G36U C37A] | 0 |
| GGCAGAGCUCAACACAGCGUUGCAAAGUGUCUGUGGUUAGACUGCC [G21U G30U C37U] | 0.02 |
| GGCAGAGCUCAACACAGCGUUGCAAAGUGGCUCUGGCUAGAUUGCC [G21U G33C C42U] | 0.04 |
| GGCAGAGCUCAACACAGCGUUGCAAAGUGGCUGUUGCUAAACUGCC [G21U G35U G40A] | 0.07 |
| GGCAGAGCUCAACACAGCGUUGCAAAGUGGCUGUGGCUACACUUCC [G21U G40C G44U] | 0.02 |
| GGCAGAGCUCAACACAGCGUUGCAAAGUGGCUAUUGCUAGACUGCC [G21U G33A G35U] | 0.08 |
| GGCAGAGCUCAACACAGCGUUGCAAAGGUGUUGUGGCUAGACUGCC [G21U U28G G29U C31U] | 0.05 |
| GGCAGAGCUCAACACAGCGUUGCAAAGUGGCUGUGCCUAGACUGUC [G21U G36C C45U] | 0.07 |
| GGCAGAGCUCAACACAGCGUUGCAAAGCAGCUGUGGCUAGACUGCU [G21U U28C G29A C46U] | 1.79 |

| Variant | self-cleavage |
| --- | --- |
| GGCAGAGCUCAACACAGCGUUGCAAAGUGGCCGUGGCUAGACUGUC [G21U U32C C45U] | 0.03 |
| GGCAGAGCUCAACACAGCGUUGCAAAGUGGCUGUGGCCAGACUUCC [G21U U38C G44U] | 0.37 |
| GGCAGAGCUCAACACAGCGUUGCAAAGUGGCUGUUGCUAGACUGCA [G21U G35U C46A] | 0.08 |
| GGCAGAGCUCAACACAGCGUUGCAAAGUGACUUUGGCUAGACUGCC [G21U G30A G33U] | 0.06 |
| GGCAGAGCUCAACACAGCGUUGCAAAGUGGCUGGGGCAAGACUGCC [G21U U34G U38A] | 0.15 |
| GGCAGAGCUCAACACAGCGUUGCAAAGUGGCUGGGGCCAGACUGCC [G21U U34G U38C] | 0.13 |
| GGCAGAGCUCAACACAGCGUUGCAAAGUGGCAGUGGCUAGACUGCA [G21U U32A C46A] | 0.07 |
| GGCAGAGCUCAACACAGCGUUGCAAAGAGGCUGUGUCUAGACUGCG [G21U U28A G36U C46G] | 0.03 |
| GGCAGAGCUCAACACAGCGUUGCAAAGUGGCUGCGGCUAGAAUGCC [G21U U34C C42A] | 0.22 |
| GGCAGAGCUCAACACAGCGUUGCAAAGUGGCUGGGGCUAGACUGCA [G21U U34G C46A] | 0.36 |
| GGCAGAGCUCAACACAGCGUUGCAAAGUGGCUGUGGCUAUACCGCC [G21U G40U U43C] | 0.06 |
| GGCAGAGCUCAACACAGCGUUGCAAAGCGGCUGCGGCUGGACGGCC [G21U U28C U34C A39G U43G] | 0 |
| GGCAGAGCUCAACACAGCGUUGCAAAGUGGCUCUGUCUAGACUGCC [G21U G33C G36U] | 0.04 |
| GGCAGAGCUCAACACAGCGUUGCAAAGUGUCUUUGGCUAGACUGCC [G21U G30U G33U] | 0.04 |
| GGCAGAGCUCAACACAGCGUUGCAAAGUGGCUGCGGCAAGACUGCC [G21U U34C U38A] | 0.22 |
| GGCAGAGCUCAACACAGCGUUGCAAAGUGGCUGAGGAUAGACUGCC [G21U U34A C37A] | 0.02 |
| GGCAGAGCUCAACACAGCGUUGCAAAGGGGCUGUGACUAGACUGCC [G21U U28G G36A] | 0.06 |
| GGCAGAGCUCAACACAGCGUUGCAAAGUGUGUGUGGCUAGACUGCC [G21U G30U C31G] | 0.06 |
| GGCAGAGCUCAACACAGCGUUGCAAAGUGGCUUUUGCUAGACUGCC [G21U G33U G35U] | 0.1 |

| Variant | self-cleavage |
| --- | --- |
| GGCAGAGCUCAACACAGCGUUGCAAAGUGGCUGUGGCUAUAGUGCC [G21U G40U C42G] | 0.28 |
| GGCAGAGCUCAACACAGCGUUGCAAAGGGGCGGUGGCUAGACUGCC [G21U U28G U32G] | 0.18 |
| GGCAGAGCUCAACACAGCGUUGCAAAGUGGCUAUGGCCAGACUGCC [G21U G33A U38C] | 0.02 |
| GGCAGAGCUCAACACAGCGUUGCAAAGUGGCUCUGGCUAGACUGCA [G21U G33C C46A] | 0.06 |
| GGCAGAGCUCAACACAGCGUUGCAAAGGGGCUGUGGCUAGACUACC [G21U U28G G44A] | 0.78 |
| GGCAGAGCUCAACACAGCGUUGCAAAGUGGCUGUGUCUAGACCGCC [G21U G36U U43C] | 0.03 |
| GGCAGAGCUCAACACAGCGUUGCAAAGAGGCUGUGGCUAGACUACC [G21U U28A G44A] | 0.04 |
| GGCAGAGCUCAACACAGCGUUGCAAAGUGGCUGUAGCUAGACUUCC [G21U G35A G44U] | 0.26 |
| GGCAGAGCUCAACACAGCGUUGCAAAGUGGCUGAGGCUAGACUGAC [G21U U34A C45A] | 0.05 |
| GGCAGAGCUCAACACAGCGUUGCAAAGUGGCAGUGGCUAGGCUGAC [G21U U32A A41G C45A] | 0.01 |
| GGCAGAGCUCAACACAGCGUUGCAAAGUGGCUCUGGGUAGACUGCC [G21U G33C C37G] | 0.05 |
| GGCAGAGCUCAACACAGCGUUGCAAAGUGUCUGUCGCUAGACUGGC [G21U G30U G35C C45G] | 0.01 |
| GGCAGAGCUCAACACAGCGUUGCAAAGUGGCUGUGCCGAGACUGCC [G21U G36C U38G] | 0.06 |
| GGCAGAGCUCAACACAGCGUUGCAAAGUGGCUCAAGCUAGACUGCC [G21U G33C U34A G35A] | 0.05 |
| GGCAGAGCUCAACACAGCGUUGCAAAGUGGCAAUGGCUAGACUGUC [G21U U32A G33A C45U] | 0.04 |
| GGCAGAGCUCAACACAGCGUUGCAAAGUGGCGGUAGCUAGGCUGCC [G21U U32G G35A A41G] | 0.12 |
| GGCAGAGCUCAACACAGCGUUGCAAAGUGGCUGCGGCUAGACUACC [G21U U34C G44A] | 0.06 |
| GGCAGAGCUCAACACAGCGUUGCAAAGUUGCUGGGGCUAGACUGCC [G21U G29U U34G] | 0.13 |
